Reference: the RNAGym collection of RNA variant scans (doi:10.1093/nar/gkz1192)
Read counts are not given, so values of variants with three or more changes are uncertain.

B1: CPEB3 Ribozyme (parent)
chain: UAACAGGGGGCCACAGCAGAAGCGUUCACGUCGCAGCCCCUGUCAGAUUCUGGUGAAUCUGCGAAUUCUGCUGUAUAUCUC

Variants of: B1
Test: self-cleavage, relative activity (ratio to wild type); higher = more cleavage; in vitro, sequencing
Summary of the method: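 After error-prone PCR and barcoding, CPEB3 ribozyme mutant libraries were transcribed with T7 RNA polymerase at 37°C for 5 hours, then given 15 min with DNase I before an EDTA stop, and they cleaved during both steps. Reverse transcription with template switching preceded Illumina sequencing. Relative activity divides a variant's cleaved/total read fraction by the unmutated ribozyme's. At least 5 reads were required per variant, and three batches were averaged.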

Row | Variant | self-cleavage
1 | G9A A45G U60A | 0.14
2 | G9A A45G U78C | 0.06
3 | G9A A45U U58A A64G U80A | 0.04
4 | G9A A45U U72A | 0.15
5 | G9A A47U A64U | 0.33
6 | G9A A56C U58A U72C U78A | 0.05
7 | G9A A56G A64U U72A U78A | 0.06
8 | G9A A56G U60A A64G U72C | 0.34
9 | G9A A57G A65U C71A A75G U76C | 0.04
10 | G9A A64G U66G U74C U80C | 0.05
11 | G9A A64G U78A | 0.17
12 | G9A A64U A77G | 0.07
13 | G9A A64U U72A U80A | 0.1
14 | G9A A65G U69C | 0.12
15 | G9A C11A G19A C23A A35G A45G U69A | 0.08
16 | G9A C11A G33U C37U U58A A65U | 0.04
17 | G9A C11G G19C U31A U60C A65G | 0.19
18 | G9A C11G U31A A45G U51C U66A U69C | 0.1
19 | G9A C11U A18U A35C U41C G70C | 0.05
20 | G9A C11U G24C A35G U51C A56G U78C | 0.04
21 | G9A C11U G24C A35G U51C U78C | 0.04

Row | Variant | self-cleavage
22 | G9A C12A A35G U78C | 0.16
23 | G9A C12A G19U U66C | 0.13
24 | G9A C12U A35G U67C | 0.08
25 | G9A C12U G53A U60C U72C | 0.1
26 | G9A C12U U43C U49C A56U | 0.05
27 | G9A C12U U43C U49C A56U U58A | 0.16
28 | G9A C14A A20U U41C U54C A65G U80G | 0.01
29 | G9A C14A C39U A45U | 0.05
30 | G9A C14U U51G A57G C62U U78C | 0.05
31 | G9A C14U U80C | 0.65
32 | G9A C17A U76C | 0.32
33 | G9A C17U A20U U26A U60A U76C | 0.05
34 | G9A C17U U31C U60C U80C | 0.05
35 | G9A C23G U25C G33A G36U | 0.05
36 | G9A C23U A35G A45G U54C U58C G70A | 0.15
37 | G9A C23U U31C | 0.15
38 | G9A C23U U60C | 0.14
39 | G9A C29A A57G A65G C71G U80C | 0.03
40 | G9A C29G U54C | 0.17
41 | G9A C29U C38A U54A G70A U78C | 0.04
42 | G9A C32A A77U | 0.2

Row | Variant | self-cleavage
43 | G9A C32A U49C U69C A77U | 0.13
44 | G9A C32A U58A A64G G73A A77G | 0.03
45 | G9A C34A U54C | 0.18
46 | G9A C37A U43A U58C A77U | 0.12
47 | G9A C37A U49C A56G U80C | 0.05
48 | G9A C37U U58C | 0.05
49 | G9A C39G U41A A56G U60A U69C | 0.14
50 | G9A C40U A45G U60A | 0.06
51 | G9A C62G U72G A75G | 0.03
52 | G9A C62U U67A | 0.1
53 | G9A G10C G30U | 0.13
54 | G9A G10U A13G A18G U25C | 0.1
55 | G9A G10U A13U A18G A20U U43G | 0.08
56 | G9A G10U U69C G70U U80C | 0.23
57 | G9A G16A U25G U60C U72C C79A | 0.04
58 | G9A G16A U41A U49C A56G U66C U67C | 0.04
59 | G9A G16U G19U U31C U41A G61U | 0.04
60 | G9A G19A C38U U78C | 0.19
61 | G9A G19A C40U U78A | 0.36
62 | G9A G19A U25C U43C A56G | 0.14
63 | G9A G19A U26A U67A G73A | 0.05

Row | Variant | self-cleavage
64 | G9A G19U A35G U80C | 0.23
65 | G9A G22A G30A U31C U51C | 0.05
66 | G9A G24A C32U U43C | 0.11
67 | G9A G24A U51C A77G | 0.05
68 | G9A G30U G42A U67C U80C | 0.22
69 | G9A G30U G42A U80C | 0.19
70 | G9A G33U U41C | 0.07
71 | G9A G42U U49C U76A | 0.23
72 | G9A G53C A56G U80C | 0.24
73 | G9A G55A U72A | 0.07
74 | G9A U25A A35U U58C | 0.04
75 | G9A U25A A35U U67A | 0.05
76 | G9A U25A U41C U43C C44U A47G | 0.06
77 | G9A U25C A35G U43C U74A | 0.08
78 | G9A U25C A45U U78C C81U | 0.05
79 | G9A U25C C32G U41C A57G U72A U80A | 0.03
80 | G9A U25C C38U A47U U72C A77G U80A | 0.13
81 | G9A U25C G30A A35U | 0.08
82 | G9A U25C G42A U54C A56G | 0.1
83 | G9A U25C U31C A77U | 0.27
84 | G9A U25C U41A U48C U67C | 0.05
